# “And” between values parts separate entries of the source, which are not always exact repeats. Identical values can stand only once. Screen size: about 150,000 compounds; about 540 (0.36%) showed an effect of 50% or more. The list shows a part of the results.
# Tested on: Plasmodium falciparum
# Assay: Primary screen in NF54 nanoGlo assay, in single point, at 2uM, 72h; a lower Z score goes with more inhibition
# Type: functional, Erythrocyte
# Conditions: timepoint 72 hour
Compound,% Inhibition [%],Z score,% Inhibition (2 µM)
CN1CCOC2CCN(C(=O)NCC(C)(C)c3ccncc3)CC21 (stereo not drawn),1,-0.17,–
NCCc1ccc(Br)cc1,-11,1.26,–
CC(=O)c1cc(OC(=O)N2CCOCC2)ccc1OC(=O)N1CCOCC1,6,-1.09,–
CC(C)N1C[C@H](CNC(=O)c2ccccn2)C2(CCCCC2)C1,3,-0.48,–
CC(C)Cn1cncc1Cn1c(=O)[nH]c2ccccc21,-1,0.18,–
COc1ccccc1[C@H]1CN(C(=O)[C@H]2CC[C@@H](O)CC2)[C@@H]2C3CCN(CC3)[C@H]12,-14,1.99,–
CC(C)N1CC[C@H](N2CCc3nccc(N)c3C2)C1=O,5,-0.65,–
CCc1cc(CN2C[C@H]3CC[C@@H](C2)N(CC=C(C)C)C3)on1,-10,1.24,–
CN1[C@@H]2CC[C@H]1CN(c1cccc(C#N)n1)CC2,-10,2.05,–
CC(C)N1CCCN(C(=O)Cc2cscn2)CC1,-8,1.14,–
Cc1nc(CCNC2CC3CCC2C3)cs1 (stereo not drawn),-5,0.66,–
Cc1cnc(C(C)NC(C)Cn2cc(Br)cn2)s1 (stereo not drawn),-11,1.5,–
Cc1cccc(C)c1-n1nnnc1C1(NCCc2c(C)[nH]c3c(Cl)ccc(Cl)c23)CCCCC1,-8,1.42,–
CC(=O)c1cc(CN(C)[C@@H](C)Cc2ccccn2)n(C)c1,-2,0.42,–
CN1C(=O)C([C@H]2c3ccccc3C(=O)N2Cc2ccccc2Cl)C(=O)N(C)C1=O,-1,0.07,–
O=C(Cc1ccc(O)c(Cl)c1)N1CCN(CC2CCC2)CC1,-11,1.76,–
O=C(NC[C@]1(O)CN2CCC1CC2)c1cccc(C2CCC2)c1,-5,1.08,–
CCCCCC(C)NC(C)Cn1cccn1 (stereo not drawn),-13,1.95,–
COCCn1c(C(=O)N[C@H]2CCOC(C)(C)C2)cc2cc(Cl)ccc21,26,-2.98,–
CCc1ccnc(C(=O)NC2CCOCC2N2CCCC2)c1 (stereo not drawn),-9,1.07,–
CC(F)(F)CCN1C2CCC1CC(=O)C2,-8,0.99,–
c1cnc(-c2nc(CN3CCOC4CCCCC43)cs2)nc1 (stereo not drawn),-16,2.97,–

Compound,% Inhibition [%],Z score,% Inhibition (2 µM)
O=C(C1CCOCC1)N1C[C@H](c2ccc3c(c2)OCO3)[C@@H]2[C@H]1C1CCN2CC1,-10,0.98,–
CCCc1c(C(=O)NCCN2CCOCC2)c(=O)cc(C)n1Cc1ccc2c(c1)OCO2,6,-0.71,–
Cc1ccccc1Cc1c(C(=O)NCc2ccon2)c(=O)cc(C)n1Cc1ccccn1,-3,0.4,–
Cc1ccc(C)c(C(=O)[C@@H](N)CC(C)C)c1,-5,0.68,–
Cc1cccc(OCC(=O)N2CCN(Cc3ncnn3C(C)(C)C)CC2)c1C,-33,3.89,–
C1CCC(NC2CCC3(CC2)OCCO3)CC1,-6,0.86,–
O=C(c1ccccn1)N1C[C@H]2CC[C@@H](C1)N(CC1CCCCC1)C2,-7,1.22,–
Cc1[nH]c2ccccc2c1CC1C(=O)N(C)C(=O)N(C)C1=O,9,-1.32,–
Cc1ccc([C@H]2CN(S(=O)(=O)C3CC3)[C@@H]3C4CCN(CC4)[C@H]23)cc1,-2,0.32,–
CCC1(CC)O[C@@H](c2cccnc2)Nc2ccccc21,-5,0.65,–
Cn1c(O)c(Cc2ccc(OCc3ccccc3)cc2)c(=O)n(C)c1=O,–,–,-10% and 6%
OC[C@]12COCCN1CCN(c1nccc(C(F)(F)F)n1)C2,-1,0.27,–
Cc1ncsc1CN1C[C@@H]2CC[C@H]1CN(Cc1c(C)noc1C)C2,-5,0.89,–
O=C(NCc1nccs1)N1C2CCC1C(CO)C2 (stereo not drawn),-8,0.75,–
CC(C)(CN)c1c(Cl)cccc1Cl,-5,0.84,–
CCN1CCN(C(=O)c2cccc3[nH]c(=O)oc23)[C@@H](C)C1,-12,1.57,–
CCc1nc(CNC(=O)c2ccc3c(c2)CCNCC3)cs1,-1,0.25,–
O[C@@]1(c2ccccc2)CCN[C@H]2CCCC[C@@H]21,-21,2.65,–
CN1CC[C@@H](c2ccc(F)cc2)[C@H](CO)C1,0,0.03,–
CCn1nc(C)c(Br)c1C(=O)N1CCN(CCOC(c2ccccc2)c2ccccc2)CC1,1,-0.12,–
O=C(Cc1ccc(F)cc1F)N1CCN(CCO)[C@@H]2CS(=O)(=O)C[C@@H]21,-23,2.48,–
Cc1ccc(S(=O)(=O)NCC#CCN2CCCC2)s1,-6,1.09,–

Compound,% Inhibition [%],Z score,% Inhibition (2 µM)
C[C@H]1CN(c2ncnc3[nH]ccc23)CCN1,-1,0.21,–
COc1ccccc1[C@@H]1CC(c2c(O)n(C)c(=O)n(C)c2=O)=NN1,1,-0.15,–
CC(C)CCCN1C(=O)C2(Cc3ccccc3N3CCN(c4ccccc4)CC32)C(=O)N=C1O (stereo not drawn),-7,0.61,–
c1cnc2c([C@@H]3NCCc4[nH]cnc43)cnn2c1,-17,1.52,–
CC(c1ccccc1)C(NC(=O)c1ccn(C(C)C)n1)C(N)=O (stereo not drawn),-9,0.97,–
O=C(Cn1cc(-c2ccc(F)cc2)oc1=O)NCc1ccccc1Cl,-9,0.93,–
CC(C(=O)N1C2CCC1c1ccccc12)n1cncn1 (stereo not drawn),-8,1.13,–
CCc1ccc2ncc(C#N)c(N3CCC(C(=O)N4CCC5(CC4)OCCO5)CC3)c2c1,-4,0.55,–
O=C(N1CCOCC1)N1C2CCC1c1ccccc12,-13,1.62,–
CN1CC2CN(c3cc(C4CCC4)ncn3)CC2C1 (stereo not drawn),-10,1.29,–
O=C(NC1(C(Cl)(Cl)Cl)OCCO1)C(Cl)(Cl)Cl,-15,2.04,–
Cc1ccc(NC(=O)NCC2CCN(C(=O)Oc3ccccc3)CC2)cc1C,0,0.04,–
COc1ccc(C(=O)CN)cc1C(C)C,3,-0.36,–
COc1cccc(-n2c(-c3ccoc3)nc3ccccc3c2=O)c1,-5,0.66,–
Cc1[nH]c(=O)c(C(=O)Nc2ccc(-c3noc(=O)[nH]3)cc2)cc1-c1ccccc1,3,-0.51,–
O=S(=O)(F)c1ccc(-c2cn([C@H]3CC[C@@H]3O)nn2)cc1,24,-2.83,–
CCOc1ccccc1NC(=O)c1ccc2oc(=O)n(Cc3ccc(F)cc3)c2c1,2,-0.31,–
CCOC(Cn1cc(C(=O)Nc2nc3ccccc3[nH]2)nn1)OCC,-11,1.25,–
N#Cc1ccc(C(=O)N[C@@H]2[C@@H]3CCO[C@@H]3[C@H]2N2CCCC2)cn1,-2,0.3,–
C[C@H]1CCC(C)(C)N1C(=O)C12CCN(CC1)C2,-4,0.42,–
Cc1ccc(CC2(CCc3ccncc3)C(=O)NC(=O)NC2=O)s1,-3,0.32,–
CC(O)(C(=O)N1C2CCC1C(CO)C2)c1ccc(F)cc1 (stereo not drawn),5,-0.55,–

Compound,% Inhibition [%],Z score,% Inhibition (2 µM)
COCC(O)CNC(Cc1cccnc1)c1cccc(Cl)c1 (stereo not drawn),1,-0.2,–
O=C(c1cc(-c2ccc(Br)cc2)nc2ccccc12)N1CCC2(CC1)OCCO2,1,-0.17,–
CC(C)N1C[C@@H]2OCC(=O)N(Cc3ccccn3)[C@@H]2C1,15,-1.77,–
CN(C)S(=O)(=O)N1C2CCC1c1ccccc12,-3,0.33,–
CCCN(CCc1cccc(F)c1)Cc1nc(N(C)C)no1,-6,0.71,–
O=C(c1cccc(OCC(F)F)n1)N1CCC(Nc2ccccc2F)CC1,-3,0.37,–
Cc1ccc(C)n1C1CC(C)(C)NC(C)(C)C1,-5,0.97,–
CN(C)CC#CCNC(=O)NCc1ccccc1,-4,0.7,–
CC(C)n1cnc(C(=O)NCC2CCCCCC2)c1,-11,1.85,–
CN1C(=O)c2cccnc2O[C@H]2CN(Cc3ccncc3F)C[C@H]21,-8,1.22,–
Cc1ccc(C(=O)N2CC3(C[C@@H](C(=O)NC(C)C)N(C)C3)C2)cn1,-14,1.66,–
O=C(Nc1cccc(-c2noc(=O)[nH]2)c1)c1ccccc1C(=O)c1ccc(F)cc1,-4,0.73,–
O=C(c1cccnc1)N1C[C@@H](c2ccc(F)cc2)[C@@H]2[C@H]1C1CCN2CC1,-13,2.41,–
CC[C@@H](Cc1ccc(C)cc1)N(C)CC(=O)NC(N)=O,-17,2.23,–
CN1CCC[C@]2(C(=O)O)CN(c3ncccc3Cl)CC[C@@H]12,1,-0.12,–
Cc1csc(CNC(=O)C2CC3CCC2N3C(=O)C2CCC(F)(F)CC2)n1 (stereo not drawn),-6,0.73,–
CC(C)c1cccc(OC23CCCN(CC2)C3)c1 (stereo not drawn),-6,1.2,–
COc1c(C)[nH]cc(CN(C)c2nc(C(C)C)ns2)c1=O,-10,1.62,–
FC(F)(F)c1cc(N(C2CCNCC2)C2CC2)ncn1,-2,0.4,–
Cc1cccc(-c2cc(C(=O)N3CCC4(CC3)OCCO4)c3ccc(Cl)c(C)c3n2)c1,-12,1.67,–
FC(F)(F)c1cccc(C2=CCNCC2)n1,-7,1.28,–

# Reference: ChEMBL document CHEMBL4888484, “Replenishing the malaria drug discovery pipeline: Screening and hit evaluation of the MMV Hit Generation Library 1 (HGL1) against asexual blood stage Plasmodium falciparum ,using a nano luciferase reporter read-out” (2022)
